Measurements taken from US20190352389A1.

Target: human LIF (source not stated) (human) (UniProt P15018)
Assay: cell-based or functional assay

Chain of UniProt P15018 (P15018 23-202 limits assumed): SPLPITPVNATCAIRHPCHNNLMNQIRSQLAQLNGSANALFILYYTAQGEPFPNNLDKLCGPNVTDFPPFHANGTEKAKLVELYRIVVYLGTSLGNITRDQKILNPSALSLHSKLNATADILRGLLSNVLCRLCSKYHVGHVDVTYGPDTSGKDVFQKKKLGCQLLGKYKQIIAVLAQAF

- IC90 (nM), pSTAT3, Endogenous LIF Condition, U251, Mean: 8.5 nM
B1: r5D8 (parental rat 5D8) (antibody, from another filing)
heavy: QVQLQESGGGLVKPGGSLRLSCAASGFTFSHAWMHWVRQAPGKGLEWVGQIKAKSDDYATYYAESVKGRFTISRDDSKNTLYLQMNSLKTEDTAVYYCTCWEWDLDFWGQGTMVTVSSASTKGPSVFPLAPSSKSTSGGTAALGCLVKDYFPEPVTVSWNSGALTSGVHTFPAVLQSSGLYSLSSVVTVPSSSLGTQTYICNVNHKPSNTKVDKRV[left out - human IgG1 Fc]
light: DIVMTQTPLSSPVTLGQPASISCRSSQSLLDSDGHTYLNWLQQRPGQPPRLLIYSVSNLESGVPDRFSGSGAGTDFTLKISRVEAEDVGVYYCMQATHAPPYTFGQGTKLEIKRTVAAPSVFIFPPSDEQLKSGTASVVCLLNNFYPREAKVQWKVDNALQSGNSQESVTEQDSKDSTYSLSSTLTLSKADYEKHKVYACEVTHQGLSSPVTKSFNRGEC
